Reference: publication PMC4336329 (PLoS ONE, 2015)
Among all 310,000 compounds or so, about 14,000 (4.5%) showed an effect of 50% or more. Effects have a minus sign here. The list shows a part of the results.

Target: human ether-à-go-go-related gene (hERG) potassium channel (human, UniProt Q12809)
Test: primary screen, population patch clamp on CHO cells stably expressing hERG
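Note: peak tail current of the secondary pulse compared with the same well before compound.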

Chain of human ether-à-go-go-related gene (hERG) potassium channel (Q12809 whole entry, looked up): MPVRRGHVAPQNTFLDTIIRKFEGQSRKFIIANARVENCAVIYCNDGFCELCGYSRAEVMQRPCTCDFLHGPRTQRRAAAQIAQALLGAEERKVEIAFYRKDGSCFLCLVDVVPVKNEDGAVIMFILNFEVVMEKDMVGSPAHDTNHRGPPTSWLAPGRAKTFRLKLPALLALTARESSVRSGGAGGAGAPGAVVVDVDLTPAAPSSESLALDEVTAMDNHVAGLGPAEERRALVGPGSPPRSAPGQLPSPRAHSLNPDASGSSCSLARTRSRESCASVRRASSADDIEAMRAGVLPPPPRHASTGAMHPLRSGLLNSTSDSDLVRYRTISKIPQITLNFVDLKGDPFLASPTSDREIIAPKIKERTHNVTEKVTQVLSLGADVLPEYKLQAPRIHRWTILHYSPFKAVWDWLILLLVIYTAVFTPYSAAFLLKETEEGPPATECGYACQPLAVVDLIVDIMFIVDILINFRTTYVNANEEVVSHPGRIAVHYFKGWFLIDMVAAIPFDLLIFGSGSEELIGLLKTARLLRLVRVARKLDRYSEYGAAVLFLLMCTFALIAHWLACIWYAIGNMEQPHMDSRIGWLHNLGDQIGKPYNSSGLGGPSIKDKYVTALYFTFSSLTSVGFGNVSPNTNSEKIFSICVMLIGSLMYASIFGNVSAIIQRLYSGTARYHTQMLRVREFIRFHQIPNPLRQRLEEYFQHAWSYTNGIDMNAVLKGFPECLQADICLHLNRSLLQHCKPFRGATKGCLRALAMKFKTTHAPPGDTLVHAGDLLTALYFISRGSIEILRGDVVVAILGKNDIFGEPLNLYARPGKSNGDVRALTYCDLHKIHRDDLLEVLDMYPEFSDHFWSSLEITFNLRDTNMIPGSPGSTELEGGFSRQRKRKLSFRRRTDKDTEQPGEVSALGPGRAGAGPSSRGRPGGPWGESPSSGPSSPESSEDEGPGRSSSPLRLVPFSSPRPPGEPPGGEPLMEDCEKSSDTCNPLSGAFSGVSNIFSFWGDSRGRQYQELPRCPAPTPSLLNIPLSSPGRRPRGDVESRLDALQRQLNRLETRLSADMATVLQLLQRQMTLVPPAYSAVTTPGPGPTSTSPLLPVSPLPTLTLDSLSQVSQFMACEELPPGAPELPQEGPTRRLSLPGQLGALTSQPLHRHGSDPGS

| SMILES | hERG current change (%, negative = inhibition) at 10uM |
| --- | --- |
| CC(C)CN(CC(C)C)C(=S)NC1CCCCC1 | 9.09% |
| Cc1cc(C)cc(Oc2nn[nH]n2)c1 | 22.2% |
| COc1ccc([C@@H]2CC=C(C(=O)O)[C@H](c3ccc(F)cc3)N2S(=O)(=O)c2ccc(C)cc2)cc1OC | 10.5% |
| NC(=O)c1ccsc1NC(=O)c1nc(-c2ccccc2)n(-c2ccccc2)n1 | 8.47% |
| O=C(COC(=O)CCS(=O)(=O)c1ccccc1)Nc1cc(S(=O)(=O)N2CCCCC2)ccc1Cl | -4.61% |
| Cc1ccc(S(=O)(=O)c2c(N)n(C)c3nc4ccccc4nc23)cc1 | -5.92% |
| CCC(C)Nc1nc(N)c([N+](=O)[O-])c(NC2CCCCC2)n1 (centres unmarked) | 35.1% |
| CCC(C)[C@H]1CNC(=O)C(=O)N1CCCc1cc(OC)c(OC)c(OC)c1 (some centres unmarked) | 9.16% |
| COC(=O)C1CCN(S(=O)(=O)c2ccc(NC(C)=O)cc2)CC1 | 2.04% |
| CC(=O)c1c(C)[nH]c(=S)c(C#N)c1-c1ccc(F)cc1 | 23% |
| CN(C)c1ccc(/C=N/NC(=O)c2ccc(NC(=O)c3ccccc3)cc2)cc1 | -4.1% |
| O=C(c1ccc(Cl)c(S(=O)(=O)N2CCCC2)c1)N1CCOCC1 | -23.2% |
| CC1(C)Cc2ccccc2-c2nnc(-c3ccco3)n21 | 10.1% |
| COc1ccccc1NC(=O)NNC(=O)CCN1CCOCC1 | 12.7% |
| CC1CC(C)CN(CC(=O)Nc2cc(S(=O)(=O)N3CCOCC3)ccc2N2CCCC2)C1 (centres unmarked) | 5.56% |
| Cc1noc(C)c1COc1cccc(C(=O)OCC(=O)N2CC(=O)Nc3ccccc32)c1 | -0.541% |
| Fc1cccc(Cl)c1/C=C/c1cnc2ccccc2n1 | 28.1% |
| O=C(CCCN1C(=O)/C(=C\c2ccco2)SC1=S)Nc1ccc2ccccc2c1 | 1.55% |
| COc1cc(NC(=O)CN2C(=O)NC(C)(c3ccc4ccccc4c3)C2=O)c(C)cc1[N+](=O)[O-] (centres unmarked) | -1% |
| O=C(CC1S/C(=N/N=C2CCCCCC2)NC1=O)Nc1ccccc1C(F)(F)F (centres unmarked) | 5.98% |
| O=C(CCN1C(=O)/C(=C/c2cccs2)SC1=S)Nc1ccc(O)cc1 | 10.1% |
| O=C(CN(CC1CCCO1)C(=O)CCC(=O)Nc1ccccn1)NCc1ccccc1 (centres unmarked) | 2.7% |

| SMILES | hERG current change (%, negative = inhibition) at 10uM |
| --- | --- |
| Cl.Nc1ccc(N2CCCCCC2)cc1 | -9.09% |
| CCCOc1ccc2c(=O)c(-c3cc(C(=O)OC)oc3C)c(C)oc2c1 | -26.1% |
| COC1(OC)C(=N/O)/C(=N\O)CCC1O (centres unmarked) | -6.26% |
| COc1cccc(OCCOc2c(OC)cccc2OC)c1 | 0.336% |
| O=C(COc1ccc(Cl)cc1)NCc1nnc(SCC(=O)N2CCCCC2)o1 | -16.3% |
| Cc1nc2c(-c3ccccc3)c(C)nn2c(C)c1CC(=O)O | 5.02% |
| Cc1cccc2cc(CN(Cc3ccco3)C(=O)c3ccco3)c(=O)[nH]c12 | -1.66% |
| Cc1csc(NC(C)c2nc3cc(Cl)c(N4CCCCC4)cc3n2CCOCCO)n1 (centres unmarked) | -35.2% |
| COc1ccc(C(=O)C2CCCN(C(=O)c3cc4nc(C)cc(C)n4n3)C2)cc1F (centres unmarked) | -8.72% |
| COc1ccc(S(=O)(=O)NC2(C(F)(F)F)N=C(c3ccccc3)NC2=O)cc1 (centres unmarked) | 31.5% |
| CC(C)COC(=O)C(N)C(C(=O)OCC(C)C)c1ccccc1.Cl (centres unmarked) | -4.15% |
| CCN(CC)S(=O)(=O)c1ccc(Cl)c(C(=O)NC(C)C(c2cccs2)N2CCCC2)c1 (centres unmarked) | -0.0909% |
| CC(C)(C#CC(O)(c1ccccc1)c1ccccc1)N1CCCC1.Cl | -47.9% |
| CC1CC(=O)N(c2ccc(C(C)C)cc2)C(=O)C1 | 9.54% |
| O=C(COC(=O)c1cccnc1Cl)Nc1cc(S(=O)(=O)N2CCCCC2)ccc1Cl | -18.9% |
| CC(C)NC(=O)c1cc2c(-c3ccc(Cl)cc3)nn(C)c2s1 | 4.67% |
| COc1cccc(-c2ncc3ccccc3c2COC(=O)CCC(=O)O)c1 | -2.62% |
| COc1cccc(CC(=O)Nc2sc3c(c2C(N)=O)CCCC3)c1 | 12.4% |
| CN(C(=O)CSc1nnc(C2CC2)n1-c1ccccc1)C1CCS(=O)(=O)C1 (centres unmarked) | 3.43% |
| O=C(NCc1ccccc1Cl)c1cc2ccccc2oc1=O | 17.4% |
| CCOc1cc(S(=O)(=O)N2CCC(c3nc4ccccc4s3)CC2)c(OCC)cc1S(=O)(=O)N1CCCCC1 | 3.29% |
| C=CCn1c(-c2ccco2)n[nH]c1=S | 13.6% |

| SMILES | hERG current change (%, negative = inhibition) at 10uM |
| --- | --- |
| COc1ccc(COC(=O)NC(C(=O)O)c2ccccc2)cc1 (centres unmarked) | 2.6% |
| Cc1ccc(S(=O)(=O)NCCCNc2ccc([N+](=O)[O-])cc2)cc1 | -65.2% |
| Cc1cccc(C)c1NC(=O)Nc1ccc2c(c1)OCO2 | 3.47% |
| CC(Sc1ccccc1)C(=O)NNC(=O)c1csc(N2CCOCC2)n1 (centres unmarked) | 0.437% |
| COc1cccc(NC(=O)C(C)SCc2ccccc2)c1 (centres unmarked) | -7.6% |
| COC(=O)C1=C(c2ccc(F)cc2F)C[C@@H]2CC[C@H]1N2C(=O)NCc1ccc(F)cc1 | -46.4% |
| O=C(c1ccccc1)n1ccc(-c2cnc(-c3ccccc3)s2)n1 | 16% |
| CC(OC(=O)CCN=C1NS(=O)(=O)c2ccccc21)C(=O)NC1CCCCC1C (centres unmarked) | -9.25% |
| CC(C)[C@H](NC(=O)c1ccco1)C(=O)OCC(=O)Nc1ccc(Cl)c(S(=O)(=O)N(C)C)c1 | -27.8% |
| COc1ccc2nc(NC(=O)c3ccc(F)cc3)sc2c1 | 18.3% |
| CCCCn1c(SCC(=O)N2CCC(C)CC2)nc2ccsc2c1=O | -70.7% |
| COc1ccc(C(=O)NCCNc2nc3ccc(C)cc3cc2C#N)cc1OC | -6.08% |
| Cc1ccc(N(CC(=O)Nc2ccccc2-c2ccccc2)S(=O)(=O)c2ccccc2)cc1 | 13.2% |
| CCCNC(=O)C(Cc1ccccc1F)NC(=O)c1ccc(C#N)cc1 (centres unmarked) | -11.8% |
| CCCNC(=O)NCc1ccc(N2CCCC2=O)cc1 | 8.43% |
| Cc1ccc(/C=N/NC(=O)CC(=O)NCc2cccnc2)cc1 | 5.03% |
| C=C(Br)Cn1cnc2ccccc21 | 1.96% |
| COc1ccc2cc(CN(Cc3cccnc3)S(=O)(=O)c3ccccc3)c(=O)[nH]c2c1 | -31.9% |
| Cc1c(NC(=O)C(C)OC(=O)C23CC4CC(CC(Br)(C4)C2)C3)c(=O)n(-c2ccccc2)n1C (centres unmarked) | -0.374% |
| COc1ccc(CN=Cc2c(C(=O)O)[nH]c3ccccc23)cc1 | 4.73% |
| COC(=O)C1=C[C@@H](C(=O)OC)[C@@H]2C3=C(C(=O)[C@@]2(C)NC(=O)c2ccccc2)[C@H](C)n2c(=O)n(C)c(=O)n2[C@@H]3C1 | 5.63% |
| CCCCNCc1cc(Br)c(OCC(=O)NCc2ccccc2)c(OC)c1.Cl | -39.4% |

| SMILES | hERG current change (%, negative = inhibition) at 10uM |
| --- | --- |
| COc1nc(Nc2cccc(F)c2)nc(OC)n1 | -12.4% |
| COc1cc(SC)ccc1C(=O)NCc1ccccc1 | -1.62% |
| COc1ccc(S(=O)(=O)N2CCC(C(=O)NC3CCCCC3C)CC2)cc1 (centres unmarked) | 4.99% |
| COc1ccc(-c2cc(C(=O)NCc3ccccc3)no2)cc1OC | -9.12% |
| Cc1sc(NC(=O)C2C3CCC(O3)C2C(=O)O)c(C(=O)OC(C)C)c1-c1ccc(Cl)cc1 (centres unmarked) | 0.0141% |
| CCOC(=O)CSc1nc(NC#N)nc(N(CC)CC)n1 | 4.39% |
| O=C(CSc1nnc(-c2cccnc2)n1-c1ccccc1)NCc1ccc2c(c1)OCO2 | -69% |
| CCN(CC)S(=O)(=O)c1ccc(C(=O)Nc2ncn(Cc3ccccc3)n2)cc1 | -2.91% |
| COc1cccc(NC(=O)C(=O)N2CCOCC2)c1 | 14.5% |
| CCOc1ccc(C(=O)CSCCC(=O)O)cc1 | 18.7% |
| CCCCCn1c(=N)n(CC(O)COc2ccccc2OC)c2ccccc21.Cl (centres unmarked) | -81.1% |
| Nc1nnnn1/N=C/c1ccccc1OCc1ccc(Cl)cc1 | 2.22% |
| O=C1NC(=S)N(c2ccccc2F)C(=O)/C1=C\c1cccs1 | 11.5% |
| O=C(c1ccc(S(=O)(=O)NCC2CCCO2)cc1)N1CCN(c2ccccc2F)CC1 (centres unmarked) | 24.2% |
| O=C(OCc1cc2ccccc2[nH]c1=O)c1ccncc1 | -1.98% |
| COc1ccc(CNC(=O)CCN2C(=S)NC(C)(C)CC2C)cc1 (centres unmarked) | 4.81% |
| CC(C)(O)C(=O)Nc1ccc([N+](=O)[O-])c(C(F)(F)F)c1 | 10.4% |
| CC(C)OC(=O)c1c(NC(=O)c2cnn3c2NC(c2ccccc2)CC3C(F)F)sc2c1CCCC2 (centres unmarked) | 6.72% |
| Cc1nc2ccc(NC(=O)c3ccc(Cl)c(NC(=O)c4cccs4)c3)cc2s1 | 1.92% |
| OCCSc1nc(-c2ccccc2)nc2ccc(F)cc12 | 6.2% |
